Laboratory results taken from PubChem BioAssay AID463173 (ICCB-Longwood Screening Facility, Harvard Medical School, 2010).
The whole screen tested about 52,000 compounds, of which about 1,700 (3.3%) were called active. No stated cut-off is given here; in the data, active means survival mostly below about 52% (no sharp cut-off); inactive means mostly above about 56%. The list shows a part of the results.

What follows are compounds tested on Wild type (assay: growth inhibition of S. aureus wild type versus tarO mutant, primary screen, teichoic acid synthesis inhibitors, RN4220, OD600 (AID 463173)). Details: S. aureus RN4220 wild type/DeltatarO growth, OD600, 18 h, hits give low values, screened at 18.75 µg/mL (by protocol).
With `O=C(CSc1ncc2c(n1)-c1ccccc1N(Cc1ccc(F)cc1)S2(=O)=O)NCc1ccccc1` the survival was inactive: 76%.
`Cc1ccc(S(=O)(=O)CCc2nc3ccccc3n2CCC#N)cc1` was tested, and the survival was inactive: 117%.
In the case of `Cc1cn2c(=O)cc(COC(=O)c3cccc(NC(=O)COc4ccc(Cl)cc4)c3)nc2s1`, the survival is reported as inactive: 99%.
For `COC(=O)c1c(NC(=O)COc2ccccc2Cl)sc2c1CCC(C(C)(C)C)C2` (stereo unspecified), the survival was inactive: 128%.
`Cc1ccc(CCNC(=O)c2cc3sccc3n2Cc2ccc(F)cc2)cc1` was tested, and the survival was inactive: 98%.
With `N#C/C(=C\c1ccc(Br)cc1)c1nc(-c2cc3cc(Br)ccc3oc2=O)cs1` the survival was inactive: 69%.
`CCOC(=O)c1sc(N2N=C(C)CC2=O)nc1C` was tested, and the survival was inactive: 115%.
In the case of `COC(=O)c1ccc(Cl)cc1NC(=O)N1CCC(CN2CCCC2)CC1`, the survival is reported as inactive: 71%.
`Cc1ccc(C(=O)c2cn(Cc3ccccc3F)c3cc4c(cc3c2=O)OCO4)cc1` was tested, and the survival was inactive: 88%.
In the case of `O=C(NCc1cccs1)c1cc2sccc2n1Cc1ccccc1`, the survival is reported as inactive: 84%.
With `COc1cc(/C=C(\C#N)c2nc3ccc(C)cc3[nH]2)ccc1OC(C)C` the survival was inactive: 79%.
With `CCc1ccc(S(=O)(=O)c2c[nH]c3cc(OC)c(OC)cc3c2=O)cc1` the survival was inactive: 89%.
With `COc1ccc2cc3cc(C(=O)NCCc4ccccc4)sc3nc2c1Cl` the survival was inactive: 73%.
In the case of `Cc1ccccc1NC(=O)Cn1c(=O)n(-c2ccc(CC(=O)NCC3CCCO3)cc2)c(=O)c2ccccc21` (stereo unspecified), the survival is reported as inactive: 90%.
With `COc1ccc(-c2cc(C(F)(F)F)nc(NCc3ccccc3)n2)cc1` the survival was active: -5%.
`CCn1nnc(NC(=O)COc2ccccc2)n1` was tested, and the survival was inactive: 113%.
In the case of `COc1cccc(NC(=O)C(=O)NCC(c2ccc3c(c2)OCO3)N2CCOCC2)c1` (stereo unspecified), the survival is reported as inactive: 22%.
In the case of `O=C(Cn1c(=O)n(-c2ccc(Cl)cc2)c(=O)c2sc3ccccc3c21)NC1CCCCC1`, the survival is reported as inactive: 81%.
`Fc1ccc(C(Nc2ccc(Cl)c(C(F)(F)F)c2)c2nnc(-c3ccccc3)o2)cc1` (stereo unspecified) was tested, and the survival was inactive: 82%.
With `COc1cc(OC)c(NC(=O)CCn2cccn2)cc1Cl` the survival was inactive: 71%.
For `CN(Cc1ccccc1)C(C(=O)NC1CCCCC1)c1ccc(Cl)cc1` (stereo unspecified), the survival was inactive: 74%.
For `COc1cc(-c2noc(-c3ccc(N4CCOCC4)c([N+](=O)[O-])c3)n2)cc(OC)c1OC`, the survival was inactive: 84%.
With `CCN(CCCNC(=O)CSc1cc(=O)n(C)c2cc(Cl)ccc12)c1cccc(C)c1` the survival was inactive: 114%.
`Cc1c2cnn(-c3ccccc3)c(=O)c2c(C)n1CC(=O)N1CCN(c2ccc(F)cc2)CC1` was tested, and the survival was inactive: 80%.
In the case of `Cc1ccc(OCC(=O)N(Cc2ccco2)Cc2ccco2)cc1`, the survival is reported as inactive: 78%.
With `COc1cccc(-c2nc(CS(=O)(=O)CC(=O)Nc3cc(F)ccc3F)c(C)o2)c1` the survival was inactive: 61%.
`O=C(NCCN1CCOCC1)Nc1c[nH]c2ccccc2c1=O` was tested, and the survival was inactive: 115%.
In the case of `Cc1ccc(NC(=O)CSc2nc3ccccc3c3nc(CCn4cncc4C)nn23)c(C)c1`, the survival is reported as inactive: 70%.
For `CCc1ccc(C(=O)c2c(N)c(-c3nc(-c4ccc5c(c4)OCO5)cs3)c3ccccn23)cc1`, the survival was inactive: 100%.
In the case of `Oc1c(C(c2ccc(Br)cc2)N2CCOCC2)sc2nc(-c3ccco3)nn12` (stereo unspecified), the survival is reported as inactive: 49%.
With `CCOc1cc(C(C#N)N2CCCCC2)ccc1OC` (stereo unspecified) the survival was inactive: 104%.
In the case of `C1CCN(c2nc(N3CCCC3)nc(N3CCNCC3)n2)C1`, the survival is reported as inactive: 118%.
`CCS(=O)(=O)c1nc2ccccc2n1CC(=O)Nc1ccccc1C(=O)OC` was tested, and the survival was inactive: 71%.
In the case of `COc1ccc2nc3sc(C(=O)N4CCN(c5ccccc5)CC4)cc3cc2c1`, the survival is reported as inactive: 91%.
For `COc1ccc(CCNC(=O)CCn2c(=O)c3ccccc3n(Cc3c(C)cc(C)cc3C)c2=O)cc1OC`, the survival was inactive: 80%.
In the case of `CN(C)c1ccc(C(CNC(=O)c2ccccc2F)N2CCc3ccccc32)cc1` (stereo unspecified), the survival is reported as inactive: 79%.
In the case of `Cc1csc2nc(CCNS(=O)(=O)c3ccccc3)cn12`, the survival is reported as inactive: 63%.
In the case of `CC(C)CCNC(=O)CN1C(=O)c2cccnc2Oc2ccccc21`, the survival is reported as inactive: 75%.
For `N#Cc1ccccc1S(=O)(=O)N1CCCC(c2nc3c(nnn3Cc3cccc(Cl)c3)c(=O)[nH]2)C1` (stereo unspecified), the survival was inactive: 82%.
In the case of `CN1CCN(C(=O)c2cnn(-c3cccc(Cl)c3)c2C2CCN(C(=O)OC(C)(C)C)CC2)CC1`, the survival is reported as inactive: 80%.
`COc1cccc(CNC(=O)c2ccc3c(c2)N(Cc2ccc(C(F)(F)F)cc2)C(=O)c2ccccc2S3)c1OC` was tested, and the survival was inactive: 149%.
For `O=C(NCc1ccco1)c1c[nH]c2ccc(S(=O)(=O)Nc3ccc(F)cc3F)cc2c1=O`, the survival was inactive: 81%.
`Cc1nn(-c2ccccc2)c2c1N(CCCC(=O)NCc1ccc(Cl)cc1)C(=O)CS2` was tested, and the survival was inactive: 69%.
With `CCCCNc1nc2c(S(=O)(=O)c3ccc(Cl)cc3)nnn2c2ccsc12` the survival was inactive: 89%.
For `CC(C)(C)c1ccc(S(=O)(=O)c2cnc(SCC(=O)Nc3ccc(F)c(Cl)c3)[nH]c2=O)cc1`, the survival was inactive: 73%.
In the case of `CCOc1ccc(NC(=O)Cc2ccc(NC(=O)N3CCCCc4ccccc43)cc2)cc1`, the survival is reported as inactive: 75%.
For `O=C(CN(C(=O)Cn1nnc(-c2cccs2)n1)c1ccc2c(c1)OCCO2)NCC1CCCO1` (stereo unspecified), the survival was inactive: 95%.
`COc1ccc(-c2nnc(SCC(=O)NCc3ccccc3)nc2-c2ccc(OC)c(OC)c2)cc1OC` was tested, and the survival was inactive: 89%.
`Cc1ccc(CN(Cc2ccco2)C(=O)COc2ccc(Cl)cc2Cl)cc1` was tested, and the survival was inactive: 117%.
In the case of `O=C(O)CN1C(=O)S/C(=C\c2ccccc2)C1=O`, the survival is reported as inactive: 117%.
In the case of `CCOc1ccccc1CNC(=O)CN(c1ccc(C)cc1)S(=O)(=O)N(C)C`, the survival is reported as inactive: 65%.
With `O=C1CCCCC(=O)c2ccccc2N1` the survival was inactive: 99%.
For `CCOC(=O)c1cc(-c2ccc(F)cc2)n(CC(=O)NCc2ccc(OC)cc2)c1C`, the survival was inactive: 71%.
In the case of `COC(=O)c1ccc([C@H]2Nc3ccc(S(=O)(=O)Nc4ccc(C)cc4)cc3[C@H]3C=CC[C@H]32)cc1`, the survival is reported as inactive: 73%.
In the case of `Brc1ccc(-c2nnc3sc(CN4CCCCC4)cn23)cc1`, the survival is reported as inactive: 80%.
In the case of `Cc1ccccc1-c1nnc(CN2CCN(c3cccc(C)c3C)CC2)o1`, the survival is reported as inactive: 62%.
